Measurements reported in PubChem BioAssay AID686978 (National Center for Advancing Translational Sciences (NCATS), 2013).
The campaign covered roughly 420,000 compounds. About 64,000 (15%) were called active. Inconclusive results, whose numbers are uncertain, are shown with a selection of clear calls. The call rests on the fitted dose curve; in most records, active means well fitted inhibition curve with a large enough effect; inconclusive means small, poorly fitted or top-dose-only effect; inactive means flat fitted curve, though single readings scatter. No potency is given beside an inconclusive call; the fits are too rough.

Assay: qHTS for Inhibitors of human tyrosyl-DNA phosphodiesterase 1 (TDP1): qHTS in cells in absence of CPT; further: nearly all actives have a fitted effect of over 55% in size
Conditions: DT40 Tdp1-/- hTDP1 cells, no CPT, ATP luminescence, 48 h; activity change, negative = growth inhibition: at 46.2 µM (top of the series)
Summary of the method: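 Cells were dispensed at 400 per well, compounds added by pin tool, plates incubated ≥48 hr at 37 °C, then CellTiter-Glo added for 30 min at room temperature before luminescence reading. Line: DT40 Tdp1-/- complemented with hTDP1; camptothecin omitted.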
On the % scale 0 is the no-effect control and ±100 the full control effect; potency means the concentration at half of the fitted maximal effect; tags describe the fitted curve by direction and shape.

Row | Structure (SMILES) | Potency | activity change, negative = growth inhibition
1 | CC(=O)N1CCc2cc(S(=O)(=O)NC3CCCCC3)ccc21 | inconclusive [inhibitor, partial curve, poor fit] | 
2 | CCc1nc2oc3ccccc3c(=O)c2c(=O)n1Cc1ccc(OC)cc1 | inconclusive [inhibitor, partial curve] | 
3 | CCN1CCSc2ccc(C(=O)NCc3cccc(F)c3)cc21 | active: 18.4 µM | 
4 | CCCCCOC(=O)CSc1nc2sc3c(c2c(=O)n1Cc1ccccc1)CC(C)(C)OC3 |  | inconclusive: -35.5% [inhibitor]
5 | COc1cccc(C(O)c2nc(-c3cccc(F)c3)cs2)c1 (configuration not stated) | inconclusive [inhibitor, partial curve] | 
6 | COc1ccc(CNc2ncnc3c2[nH]c2ccccc23)cc1 | active: 5.8 µM | 
7 | O=c1c2oc3nc4c(cc3c2ncn1CCCc1ccccc1)CCCC4 | inconclusive [inhibitor, single point] | 
8 | CC(C)NS(=O)(=O)c1ccc2c3c(cccc13)CC2 | inconclusive [inhibitor, single point] | 
9 | CC(C)(C)OC(=O)[C@H](Cc1ccccc1)NC(=O)c1nc[nH]c1C(=O)N[C@@H](CCCCN)C(=O)OC(C)(C)C | active: 16.4 µM | 
10 | Cc1ccc(/C(O)=C/C(=O)C(=O)NNC(=O)C(O)(c2ccccc2)c2ccccc2)cc1 |  | inactive: -10.1%
11 | Cc1cccc(C(=O)OCC(=O)Nc2ccccc2C(=O)NC2CC2)c1 |  | inactive: 7.37%
12 | COc1ccccc1NC(=O)N1CCC(c2nc3ccccc3o2)CC1 | inconclusive [inhibitor, single point] | 
13 | O=C1C2C(c3ccccc3)C=CC(c3ccccc3)C2C(=O)N1c1ccccn1 (configuration not stated) |  | inconclusive: -38.4% [inhibitor]
14 | COc1ccc(C2(C)NC(=O)N(CC(=O)c3cc(C)n(C4CC4)c3C)C2=O)cc1 (configuration not stated) | inconclusive [inhibitor, single point] | 
15 | O=C(NCc1ccc(F)cc1)Nc1nnc([C@@H]2C[C@H](O)[C@@H](CO)O2)s1 |  | inactive: -13.7%
16 | CCOC(=O)C1(CCOc2ccccc2)CCN(Cc2ccc(O)c(OCC)c2)CC1 | inconclusive [inhibitor, single point] | 
17 | CCOC(=O)C1(CCCc2ccccc2)CCN(C2CCSCC2)CC1 | active: 13 µM | 
18 | CCOC1=C2CN(S(=O)(=O)c3ccc(C)cc3)C(c3cccc(Cl)c3)CC2N(S(=O)(=O)c2ccc(Cl)cc2)C(c2ccccc2)C1 (configuration not stated) | inconclusive [inhibitor, full curve] | 
19 | COc1ccccc1OCCSc1ncnc2nc[nH]c12 | inconclusive [inhibitor, single point] | 
20 | COc1ccccc1Cn1c(CNS(=O)(=O)c2ccc3c(c2)CCCC3)nc2cccnc21 | inconclusive [inhibitor, single point] | 
21 | O=C(c1cc([N+](=O)[O-])ccc1N1CCCCC1)N1CCCCC1 | inconclusive [inhibitor, single point] | 
22 | O=C(/C=C/c1ccco1)NC(=S)Nc1ccccc1N1CCOCC1 | inconclusive [inhibitor, single point] | 
23 | COc1ccccc1N1CCN(C(=O)CSc2nc3ccccc3nc2Cc2ccc(F)cc2)CC1 | inconclusive [inhibitor, single point] | 

Row | Structure (SMILES) | Potency | activity change, negative = growth inhibition
24 | COc1ccc(C)cc1NC(=O)Cn1c(=O)oc2ccccc21 | active: 2.06 µM | 
25 | CC(=O)N=c1c(C#N)cc2c(=O)n3cccc(C)c3nc2n1Cc1ccco1 | inconclusive [inhibitor, partial curve] | 
26 | COc1cccc(-c2ccc(NC(=O)C3CCCN(Cc4cc(C)[nH]n4)C3)cc2)c1 (configuration not stated) | inconclusive [inhibitor, single point] | 
27 | Cc1c(Nc2nc(-c3ccc(Cl)cc3)cs2)c(=O)n(-c2ccccc2)n1C | active: 10.3 µM | 
28 | Cc1cccc(Nc2nc(-c3ccccc3)c3cc(C)ccc3n2)c1 | inconclusive [inhibitor, single point] | 
29 | COc1cc2c(cc1OC)C1(C)N(CC2)C(C(C)=O)=NN1c1ccc(Cl)cc1 (configuration not stated) | inconclusive [inhibitor, single point] | 
30 | COc1cccc2c(SCC(=O)N/N=C/c3ccc(O)c(O)c3)cc(C)nc12 | inconclusive [inhibitor, single point] | 
31 | Cc1nc2ccc(NC(=O)CCS(=O)(=O)c3ccccc3)cc2s1 |  | inactive: -10.1%
32 | Cc1ccc(-c2nc3ccccc3o2)cc1NC(=O)c1cccc2c(Cl)cccc12 |  | inactive: -23.4%
33 | O=C(Nc1ccc(N2CCCCC2)cc1)c1cccnc1 | inconclusive [inhibitor, full curve] | 
34 | CCC(=O)N1c2ccccc2CC1C(=O)NCCN1CCN(c2cccc(C)c2C)CC1 (configuration not stated) | inconclusive [inhibitor, single point] | 
35 | COc1cc(CN2CCC(C(=O)NCC(C)(C)CN(C)C)CC2)ccc1OCc1ccccc1 | inconclusive [inhibitor, single point] | 
36 | CC(C)[C@H](NC(=O)C1CCCC1)c1nc2ccccc2[nH]1 | inconclusive [inhibitor, partial curve, poor fit] | 
37 | CCc1ccc(NC(=O)Cn2nc(C(F)(F)F)c3c2CCC3)cc1 | inconclusive [inhibitor, single point] | 
38 | O=C(NNc1nc2ccccc2s1)Nc1ccc(F)cc1 | inconclusive [inhibitor, single point] | 
39 | Cc1c(C(=O)Oc2ccc(-c3cnc4ccccc4n3)cc2)cccc1[N+](=O)[O-] | inconclusive [inhibitor, single point] | 
40 | Cc1ccc(/C=[N+](\[O-])c2ccc(N(C)C)cc2)c2nsnc12 | active: 16.4 µM | 
41 | O=C(NCC1Cc2cccc(-c3cnccn3)c2O1)c1ccc2c(c1)OCCO2 (configuration not stated) | inconclusive [inhibitor, single point] | 
42 | O=C1C2CC=C(Cl)CC2C(=O)N1CCCCCCN1C(=O)C2CC=C(Cl)CC2C1=O (configuration not stated) | inconclusive [inhibitor, single point] | 
43 | CCC(Sc1nc2c(sc3ccccc32)c(=O)n1CCCC(=O)NC1CCCC1)C(=O)Nc1cccc(OC)c1 (configuration not stated) | inconclusive [inhibitor, single point] | 
44 | Cc1sc2c(c1C)c(=O)n(-c1ccccc1)c(=O)n2CC(=O)c1ccc(Cl)cc1 | active: 16.4 µM | 
45 | CC(C)OCCCn1c(SCC(=O)Nc2ccc(F)cc2)nc2c(sc3ccccc32)c1=O |  | inactive: -13.1%
46 | COc1cc2nc(CN(C)Cc3ccc(F)cc3)[nH]c(=O)c2cc1OC | inconclusive [inhibitor, single point] | 

Row | Structure (SMILES) | Potency | activity change, negative = growth inhibition
47 | COc1ccc2cc3c(N)nn(C(=O)c4ccc(F)cc4)c3nc2c1 | active: 10.3 µM | 
48 | CC1=NC(=O)C(N=Nc2ccccc2)N1c1ccccc1 (configuration not stated) |  | inactive: -13.9%
49 | O=[N+]([O-])c1cc(-c2nc(-c3ccccc3)no2)ccc1N1CCCC1 |  | inactive: -11.7%
50 | O=C(NCC(=O)N1CCC2(CC1)NCCc1[nH]cnc12)c1ccc(Br)cc1 |  | inactive: 15.7%
51 | O=C(C[C@@H]1C/C=C\CCC(=O)OC[C@H](Cc2ccccc2)NC1=O)N[C@@H](CO)Cc1ccccc1 | inconclusive [inhibitor, partial curve] | 
52 | Cc1c(C(C)(C)O)[nH]c2ccc(C#N)cc12 | inconclusive [inhibitor, single point] | 
53 | O=C(Nc1ccc(F)cc1)C1CCN(c2nc3ccccc3n3cccc23)CC1 | inconclusive [inhibitor, partial curve] | 
54 | O=C(Nc1ccc2c(c1)CCC2)c1cccc(S(=O)(=O)N2CCN(c3ccccc3)CC2)c1 |  | inactive: -20.3%
55 | Cc1noc(C)c1C(=O)N1CCC2(CC1)CCN(c1ccccn1)CC2 | inconclusive [inhibitor, partial curve, poor fit] | 
56 | O=C(NNS(=O)(=O)c1ccccc1[N+](=O)[O-])c1cccc([N+](=O)[O-])c1 | inconclusive [inhibitor, single point] | 
57 | COc1ccc(NC(=O)c2cc3c(=O)n(C)c4ccccc4c3s2)cc1Cl |  | inconclusive: -12.7% [inhibitor]
58 | O=c1[nH]c(=O)n(Cc2ccccc2)c2nc(-c3ccc(Oc4ccc(F)cc4)c([N+](=O)[O-])c3)n(CCO)c12 | active: 18.4 µM | 
59 | CCCCn1c(C(C)O)nc2ccccc21 (configuration not stated) |  | inactive: -5.31%
60 | Cc1ccc(S(=O)(=O)N(C)c2ccc(C(=O)NCC(c3ccccc3)N3CCCC3)cc2)cc1 (configuration not stated) | active: 20.6 µM | 
61 | COc1ccc(OC)c(S(=O)(=O)N2CCC(C(=O)N3CCN(c4ccc(F)cc4)CC3)CC2)c1 | inconclusive [inhibitor, single point] | 
62 | COc1ccc(C(=O)NC(CC(=O)O)c2cc([N+](=O)[O-])ccc2Cl)cc1 (configuration not stated) |  | inactive: -9.63%
63 | Cc1cc(C)c([N+](=O)[O-])cc1NC(=O)CCSc1ccccc1Cl | active: 14.6 µM | 
64 | COc1cccc(/C=N/n2c(-c3n[nH]c4c3CCC4)n[nH]c2=S)c1OC |  | inactive: -9.63%
65 | Cc1c(C(=O)N/N=C/C(C)C)[nH]c2ccc([N+](=O)[O-])cc12 | inconclusive [inhibitor, single point] | 
66 | COC(=O)c1ccccc1-c1cc(C)cc2c1OC(CNC(=O)c1cc(C)on1)C2 (configuration not stated) | inconclusive [inhibitor, single point] | 
67 | O=C(Nc1cccc(F)c1)N1CC2(CCN(C(=O)c3cc(C(F)(F)F)cc(C(F)(F)F)c3)CC2)C1 | inconclusive [inhibitor, single point] | 
